# The supplement of paper PMC4967469
# IC50 is the fitted dose that halves viability relative to control wells, and lower means more sensitive; fits outside the tested doses are given as limits. For AUC the same curve is integrated over the 256-fold range of doses and scaled to a fraction: 1 means no effect, lower means more sensitive. For some of these results: Any top dose called inferred is not printed in the source and was worked back from the curve model. For some of these results: Where an entry number is given, a second screen of the drug exists; the two often differ.
# Assays:
# Assay in all cases: Viability of human cancer cell lines after 72 h of drug (GDSC screen)
# Thapsigargin = compound: C/C=C(/C)C(=O)O[C@H]1C(C)=C2[C@H]([C@@H]1OC(=O)CCCCCCC)[C@@](C)(OC(C)=O)C[C@H](OC(=O)CCC)[C@@]1(O)[C@H]2OC(=O)[C@@]1(C)O [Thapsigargin]; details: top dose 0.512 µM; top dose inferred
# Description: (§1)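 Human cancer cell lines in 384-well plates, medium with 10% serum, drug for 72 h over a 256-fold dose range (nine 2-fold or five 4-fold steps up to the top dose). Adherent lines were fixed and stained with the nucleic acid dye Syto60, suspension lines read with resazurin; signal relative to control wells, capped at 0 and 100%. One two-parameter sigmoid per drug and line, fitted in a mixed model over all curves with the slope shared within a line.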
# QL-X-138 = compound: C=CC(=O)Nc1cc(-n2c(=O)ccc3cnc4ccc(-c5cn[nH]c5)cc4c32)ccc1C [QL-X-138]; details: top dose 10.24 µM; top dose inferred
# Description: as §1
# GSK269962A = compound: CCn1c(-c2nonc2N)nc2cnc(Oc3cccc(NC(=O)c4ccc(OCCN5CCOCC5)cc4)c3)cc21 [GSK269962A]; details: top dose inferred
# Description: as §1
# MPS-1-IN-1 = compound: COc1cc(N2CCC(O)CC2)ccc1Nc1cc(Nc2ccccc2S(=O)(=O)C(C)C)c2cc[nH]c2n1 [MPS-1-IN-1]; details: top dose 20 µM; top dose inferred
# Description: as §1
# (5Z)-7-Oxozeaenol = compound: COc1cc(O)c2c(c1)/C=C/C[C@H](O)[C@H](O)C(=O)/C=C\C[C@H](C)OC2=O [(5Z)-7-Oxozeaenol]; details: top dose 10 µM; top dose inferred
# Description: as §1
# CP466722 = compound: COc1cc2ncnc(-n3nc(-c4ccccn4)nc3N)c2cc1OC [CP466722]; details: top dose 16 µM; top dose inferred
# Description: as §1
# Zibotentan = compound: COc1nc(C)cnc1NS(=O)(=O)c1cccnc1-c1ccc(-c2nnco2)cc1 [Zibotentan]; details: top dose 20 µM; top dose inferred
# Description: as §1
# ABT-888 = compound: C[C@]1(c2nc3c(C(N)=O)cccc3[nH]2)CCCN1 [ABT-888]; details: top dose 5 µM; top dose inferred
# Description: as §1
# CMK = compound: Cc1ccc(-c2c(C(=O)CCl)n(CCCO)c3ncnc(N)c23)cc1 [CMK]; details: top dose 4 µM; top dose inferred
# Description: as §1
# ABT-869 = compound: Cc1ccc(F)c(NC(=O)Nc2ccc(-c3cccc4[nH]nc(N)c34)cc2)c1 [ABT-869]; details: top dose 1.024 µM; top dose inferred
# Description: as §1
# CHIR-99021 = compound: Cc1cnc(-c2cnc(NCCNc3ccc(C#N)cn3)nc2-c2ccc(Cl)cc2Cl)[nH]1 [CHIR-99021]
# Description: as §1
# Cytarabine = compound: Nc1ccn([C@@H]2O[C@H](CO)[C@@H](O)[C@@H]2O)c(=O)n1 [Cytarabine]; details: top dose 2 µM
# Description: as §1
# KU-55933 = compound: O=c1cc(-c2cccc3c2Sc2ccccc2S3)oc(N2CCOCC2)c1 [KU-55933]; details: top dose 10 µM
# Description: as §1
# [1] = top dose 2.5 µM, screen: GDSC drug entry 127
# [2] = top dose 5 µM, screen: GDSC drug entry 1192
# [3] = top dose 2.56 µM, screen: GDSC drug entry 154
# [4] = top dose 10 µM, screen: GDSC drug entry 1241, top dose inferred
Cell Line,AUC (Thapsigargin),IC50 (Thapsigargin),AUC (QL-X-138),IC50 (QL-X-138),AUC (GSK269962A; [1]),IC50 (GSK269962A; [1]),AUC (GSK269962A; [2]),IC50 (GSK269962A; [2]),AUC (MPS-1-IN-1),IC50 (MPS-1-IN-1),AUC ((5Z)-7-Oxozeaenol),IC50 ((5Z)-7-Oxozeaenol),AUC (CP466722),IC50 (CP466722),AUC (Zibotentan),IC50 (Zibotentan),AUC (ABT-888),IC50 (ABT-888),AUC (CMK),IC50 (CMK),AUC (ABT-869),IC50 (ABT-869),AUC (CHIR-99021; [3]),IC50 (CHIR-99021; [3]),AUC (CHIR-99021; [4]),IC50 (CHIR-99021; [4]),AUC (Cytarabine),IC50 (Cytarabine),AUC (KU-55933),IC50 (KU-55933)
"BT-474 (breast, adherent)",0.721,0.147 µM,0.435,0.416 µM,0.982,> 2.5 µM,0.888,> 5 µM,0.968,> 20 µM,0.702,2.49 µM,0.823,10.9 µM,0.98,> 20 µM,0.986,> 5 µM,0.985,> 4 µM,0.984,> 1.02 µM,0.986,> 2.56 µM,0.97,> 10 µM,0.972,> 2 µM,0.986,> 10 µM
"BV-173 (chronic myeloid leukaemia, suspension)",0.349,0.013 µM,0.382,0.316 µM,0.9,> 2.5 µM,0.822,2.47 µM,0.748,5.78 µM,0.762,3.17 µM,0.578,1.59 µM,0.988,> 20 µM,0.952,> 5 µM,0.935,> 4 µM,0.989,> 1.02 µM,0.976,> 2.56 µM,0.844,5.91 µM,0.183,0.0164 µM,0.843,5.88 µM
"Becker (glioma, adherent)",0.667,0.0996 µM,0.8,5.71 µM,0.937,> 2.5 µM,0.855,4.79 µM,0.978,> 20 µM,0.696,2.4 µM,0.856,15.6 µM,0.967,> 20 µM,0.982,> 5 µM,0.946,> 4 µM,0.967,> 1.02 µM,0.942,> 2.56 µM,0.9,> 10 µM,0.782,0.943 µM,0.949,> 10 µM
"CA46 (Burkitt lymphoma, suspension)",0.295,0.00808 µM,0.445,0.449 µM,0.928,> 2.5 µM,0.795,2.51 µM,0.838,15 µM,0.726,2.89 µM,0.635,2.43 µM,0.982,> 20 µM,0.984,> 5 µM,0.946,> 4 µM,0.97,> 1.02 µM,0.985,> 2.56 µM,0.924,> 10 µM,0.968,> 2 µM,0.966,> 10 µM
"CAS-1 (glioma, adherent)",0.602,0.0676 µM,0.745,4.28 µM,0.685,0.627 µM,0.527,0.38 µM,0.979,> 20 µM,0.782,5.86 µM,0.888,> 16 µM,0.953,> 20 µM,0.982,> 5 µM,0.937,> 4 µM,0.951,> 1.02 µM,0.941,> 2.56 µM,0.899,> 10 µM,0.908,> 2 µM,0.973,> 10 µM
"CESS (acute myeloid leukaemia, suspension)",0.503,0.0326 µM,0.255,0.144 µM,0.962,> 2.5 µM,0.931,> 5 µM,0.862,13.2 µM,0.694,2 µM,0.627,2.11 µM,0.983,> 20 µM,0.991,> 5 µM,0.825,1.96 µM,0.991,> 1.02 µM,0.975,> 2.56 µM,0.98,> 10 µM,0.96,> 2 µM,0.97,> 10 µM
"CGTH-W-1 (thyroid, adherent)",0.127,0.00209 µM,0.886,> 10.2 µM,0.983,> 2.5 µM,0.969,> 5 µM,0.979,> 20 µM,0.296,0.167 µM,0.881,> 16 µM,0.984,> 20 µM,0.967,> 5 µM,0.98,> 4 µM,0.846,0.743 µM,0.918,> 2.56 µM,0.818,5.57 µM,0.346,0.047 µM,0.944,> 10 µM
"CL-11 (large intestine, adherent)",0.973,> 0.512 µM,0.972,> 10.2 µM,0.974,> 2.5 µM,0.978,> 5 µM,0.928,> 20 µM,0.322,0.186 µM,0.931,> 16 µM,0.986,> 20 µM,0.983,> 5 µM,0.986,> 4 µM,0.987,> 1.02 µM,0.987,> 2.56 µM,0.978,> 10 µM,0.893,> 2 µM,0.923,> 10 µM
"COLO-320-HSR (large intestine, suspension)",0.544,0.0415 µM,0.967,> 10.2 µM,0.99,> 2.5 µM,0.982,> 5 µM,0.688,3.87 µM,0.798,4.05 µM,0.786,5.96 µM,0.99,> 20 µM,0.99,> 5 µM,0.829,2.05 µM,0.99,> 1.02 µM,0.988,> 2.56 µM,0.991,> 10 µM,0.645,0.296 µM,0.976,> 10 µM
"COLO-668 (small cell lung carcinoma, adherent)",0.451,0.0236 µM,0.816,5.69 µM,0.973,> 2.5 µM,0.957,> 5 µM,0.821,11.6 µM,0.9,> 10 µM,0.901,> 16 µM,0.972,> 20 µM,0.916,> 5 µM,0.989,> 4 µM,0.98,> 1.02 µM,0.986,> 2.56 µM,0.986,> 10 µM,0.774,0.783 µM,0.961,> 10 µM
"COLO-684 (endometrium, suspension)",0.73,0.159 µM,0.456,0.48 µM,0.985,> 2.5 µM,0.908,> 5 µM,0.895,> 20 µM,0.744,3.45 µM,0.744,5.51 µM,0.969,> 20 µM,0.979,> 5 µM,0.938,> 4 µM,0.963,> 1.02 µM,0.984,> 2.56 µM,0.983,> 10 µM,0.919,> 2 µM,0.959,> 10 µM
"COLO-800 (melanoma, adherent)",0.168,0.00327 µM,0.665,1.81 µM,0.976,> 2.5 µM,0.824,2.86 µM,0.906,> 20 µM,0.724,2.65 µM,0.781,6.43 µM,0.987,> 20 µM,0.963,> 5 µM,0.986,> 4 µM,0.98,> 1.02 µM,,,0.986,> 10 µM,0.705,0.462 µM,0.98,> 10 µM
"COLO-824 (breast, adherent)",0.634,0.0759 µM,0.817,5.88 µM,0.965,> 2.5 µM,0.944,> 5 µM,0.942,> 20 µM,0.856,8.33 µM,0.898,> 16 µM,0.987,> 20 µM,0.988,> 5 µM,0.968,> 4 µM,0.981,> 1.02 µM,0.965,> 2.56 µM,0.961,> 10 µM,0.966,> 2 µM,0.982,> 10 µM
"COR-L88 (small cell lung carcinoma, adherent)",0.727,0.163 µM,0.759,4.21 µM,0.895,> 2.5 µM,0.926,> 5 µM,0.949,> 20 µM,0.966,> 10 µM,0.949,> 16 µM,0.981,> 20 µM,0.983,> 5 µM,0.883,> 4 µM,0.978,> 1.02 µM,0.986,> 2.56 µM,0.985,> 10 µM,0.956,> 2 µM,0.981,> 10 µM
"COR-L95 (small cell lung carcinoma, adherent)",0.889,> 0.512 µM,0.5,0.638 µM,0.981,> 2.5 µM,0.946,> 5 µM,0.897,> 20 µM,0.931,> 10 µM,0.87,> 16 µM,0.981,> 20 µM,0.987,> 5 µM,0.956,> 4 µM,0.975,> 1.02 µM,0.987,> 2.56 µM,0.984,> 10 µM,0.861,> 2 µM,0.987,> 10 µM
"COR-L279 (small cell lung carcinoma, suspension)",0.533,0.039 µM,0.562,0.925 µM,0.847,1.55 µM,0.927,> 5 µM,0.969,> 20 µM,0.85,6.33 µM,0.782,5.95 µM,0.988,> 20 µM,0.991,> 5 µM,0.99,> 4 µM,0.988,> 1.02 µM,0.991,> 2.56 µM,0.99,> 10 µM,0.991,> 2 µM,0.988,> 10 µM
"CP66-MEL (melanoma, adherent)",0.197,0.00346 µM,0.911,> 10.2 µM,0.966,> 2.5 µM,0.962,> 5 µM,0.872,> 20 µM,0.642,1.64 µM,0.878,> 16 µM,0.976,> 20 µM,0.985,> 5 µM,0.972,> 4 µM,0.98,> 1.02 µM,0.978,> 2.56 µM,0.955,> 10 µM,0.934,> 2 µM,0.978,> 10 µM
